# Results taken from the supplement of paper PMC11417369.
# Some of the results follow.
# Tested on: PF3D7_0420300 AP2 domain 1 (GST-tagged)
# Test: gcPBM binding intensity (ln(normalized median fluorescence intensity)); higher = stronger DNA binding
# Summary of the method: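 Binding intensity values are the highest Masliner-normalised natural-log median intensity among replicate spots of either probe orientation. The binding step lasted 1 h in 1× PBS with 1% milk, 0.2 mg/ml BSA, 0.5% salmon testes DNA and 0.03% Triton X-100, using GST-tagged P. falciparum DNA-binding domains expressed in E. coli on an Agilent 4 × 180k array of primer-extended double-stranded 36-bp intergenic genomic probes plus negative controls. Alexa488 anti-GST antibody and a 488 nm scan detected bound protein.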
row,Sequence,gcPBM binding intensity (ln)
1,AATAAACATAGATGTACACACATATACAGATATATA [CACACA_site5570],9.7
2,TTGTTCTATATATATGCATGCACGTATGTTAAATTA [TGCATGCA_site659],9.27
3,TCTCATATATTGAATTGTACATATGTTAAAATATAG [XGTACX_site6764],9.05
4,TATTAATTTTTATACGCATGTGTATAGTAATATATA [TGCATGCA_site1010],9.08
5,TATAAGTATTAATACACACACAAAATAATAAAAAAA [CACACA_site3481],10.1
6,AAAAATAAAGGATATACACACTAATTCTATAAATAT [CACACA_site7344],9.61
7,GTCTCGATAATGAAAAGTACAAAATAAAAATAATAA [XGTACX_site6471],9.19
8,TAAAGAATAATACATTCACACAATATTATAAAAATA [CACACA_site5986],9.22
9,GAAATGTCATATAATAGTACACACATGAAAATATAA [XGTACX_site6838],9.55
10,TATGATTAATTACCACAATTGACAAAAAAAAAAAAA [CACACA_negctrl_site336],9.04
11,TTGTATGAATTTATTTTTATTGATAATTAATATGTA [TGCATGCA_negctrl_site143],9.13
12,ATATAACTTTTAAAAGCATGCAAATATTTACTCAAT [TGCATGCA_site396],9.27
13,TTTTTACTATAAGGGGAAAAAAAAAAAAATAATATA [XGTACX_negctrl_site279],8.98
14,CAAGAAAAGAAACACACACACATATATATATATATA [CACACA_site3881],9.87
15,TAAACATATACACGTACATGCAACGGATTTTTTTTT [TGCATGCA_site70],9.29
16,TATATATATATATGTGCACACATAATAAAAAAAAAA [CACACA_site3830],9.56
17,ATATGATTAATTAAGTGTACGTATTTATAATTATAA [XGTACX_site5783],9.2
18,ATTACAATTTTAATAGTGCATTTTTATATATTTCTA [GTGCAC_site9918],9.28
19,TTTATTTATCTTTACGCACACACTTGCATGTACAAA [CACACA_site1118],9.58
20,TACCTACCTTTACGGAGTACACAATAATAGTTATAA [XGTACX_site6593],9.16
21,GATGATACGATTATCACACATTTATACTTTCTACAT [CACACA_site5669],9.45
22,TGTATACATTATTAAGTGCAAGTAGGGAAAAAAAAA,9.41
23,ATATAAAAATAATAGAGTACAAAAAAAAAATGTATA [XGTACX_site7054],9.65

row,Sequence,gcPBM binding intensity (ln)
1,TAATATGTGGACTTTACACACTTGTTTTAAAATTCT [CACACA_site4605],9.35
2,ATATTTTACATATTTGCACACATATATTTATATACA [CACACA_site855],9.65
3,ATATATATATATATATGTACTTATTTATTTATTTAT [XGTACX_site4645],9.26
4,GAAGACAATTATATGTGTACATATATATACATATAT [XGTACX_site4630],9.26
5,GGAATTCATATTAATTGTACATTTAAAGATAGATGA [XGTACX_site3279],8.99
6,AGTAGATATTATTATAGTACTTTTTATTTTATATTT [XGTACX_site1551],9.44
7,AAAATTTATGGAAGGTGTACTGTTAATTATGTATAT [XGTACX_site6446],9.31
8,ATATTAAAGATATATACACACATATTTATAAATATA [CACACA_site7127],9.54
9,TAAGTGTATGTATATAAACACACATACATATATATA [CACACA_site8397],9.28
10,TAATTTAAAAATTCCTGTACTCAGTTTTTTCTATTT [XGTACX_site4961],9.3
11,TATAAAATTATTAAACAAGAAAATTTTAGGTAATAC [TGCATGCA_negctrl_site568],9.33
12,TATAATATATTTTGATGTACAAATATATTATATATA [XGTACX_site8633],9.01
13,ATAATATATTTTTGAACACACAATATATATATATAT [CACACA_site4124],9.28
14,TTGATAAAACGTTATGCACACGTACGTGGGTATTTA [CACACA_site8445],9.2
15,AGTATACACGAACACACACACACATATATAAATATA [CACACA_site6913],10.3
16,TAAAGTATTACAACCACACACACACCCATATATTAT [CACACA_site4159],10
17,TTAATAATGTTTTATTGTACTTTTTTGTGGGTTTAT [XGTACX_site5670],9.58
18,ATATGTATTGGAGTGTGTACATATATATATATTTAT [XGTACX_site5633],9.52
19,GTGCTACATCATATGTGTACATATACCAAACTGTAT [XGTACX_site8233],9.42
20,ATATACATTCAAGGCTGTACACTATATTTTTTTTTT [XGTACX_site6514],9.57
21,TTTGTGTAAAGAATCAGTACATATAATATATATATA [XGTACX_site1972],9.17
22,ATTTTTTTATACAATTTTATATATTAAATATTATAA [GTGCAC_negctrl_site86],9.04
23,TGTATTTTTAACATATGTACGAATAGCACGTGTTAT [XGTACX_site3640],9.32

row,Sequence,gcPBM binding intensity (ln)
1,TAAAAATGGGAGGGGTGTACTACACAATAAAATTAT [XGTACX_site5641],9.59
2,CTTGACCCCCTTTGTTGTACTGACATTTGTGAGCTT [XGTACX_site591],9.38
3,ATTTTTTCAAAATGGAAAACTTATCAGTGAAAAAAA [CACACA_negctrl_site1087],8.97
4,TATTTTATATGATAGGTGCATTTTTTTTTTTTTTTT [GTGCAC_site9757],9.2
5,TTTAAAAAAATTCATGCACACGAAATAAAAAGCACC [CACACA_site8214],9.71
6,TCTTTTATGCACATTGAGTAAACAACATATTTTTAA [TGCATGCA_negctrl_site561],9.12
7,TTTTTTATTAAAAGTAGTACACATGAAAAAAAAAAA [XGTACX_site5524],9.15
8,TTAATATAGATATAACCACACACATACATCTAATTC [CACACA_site8519],9.82
9,ATTTTTATAGAAATATGTACACAATATGTATATATT [XGTACX_site7993],9.09
10,TTTGTTGACAGACACACACACATACATATATATATA [CACACA_site2288],9.83
11,TATAATAATATAATGGTGCATGTATATAACCATATA,9.26
12,AAATAAATATAAATAAATAAATAAATAAATATATAT [CACACA_negctrl_site827],9.37
13,TCTTACGGATTCATTGTGCACATATATATATATATA [GTGCAC_site9896],9.51
14,GCTCTTTTGTTATGGTGTACCCTCCATGTAACATAA [XGTACX_site91],9.4
15,TTAATAATTCTTAAAAGTACATAACTTTTTTTTTTT [XGTACX_site751],8.77
16,TATATATAATTCATACATTTTAAATATATTTATTTA [CACACA_negctrl_site840],8.96
17,TTTTAAAAACGGCATGCATGTAATACATGGAAGGAA [TGCATGCA_site480],9.45
18,ATGTGATAGAAGTACACACACATATGTATTTATAAT [CACACA_site5075],9.69
19,TGTTTTATTTTTTTTGTGCACATACCTTTAGCATCA [GTGCAC_site9812],9.36
20,TAATTATAATAAATATTCATATGTTCAAATATATAT [CACACA_negctrl_site151],9.09
21,TAGAAGTACATATATGCATGTTAATTTTAAAGGAGG [TGCATGCA_site538],9.22
22,ATTAAAAATATTAGTTGTACTTTATATTTTCATATA [XGTACX_site3614],9.17
23,ATATATATATAGTGTTGTACATTTAAAAATAATATA [XGTACX_site2627],9.22

row,Sequence,gcPBM binding intensity (ln)
1,AATCAAAATAATTTAACACACAATTTTAATACTGTT [CACACA_site2375],9.33
2,AAATTCCATGAAAAAAGTACTAATTAATACAATATA [XGTACX_site2877],9.28
3,TTTAAGAATTAACGGGGTACAATTCTTAAATATATA [XGTACX_site669],9.15
4,TTTTCTTACATGAGTGTACACACTTTTTTTCAGAAA [CACACA_site70],9.15
5,TTTATATAATTTTAATGTACATATATATATATAAAT [XGTACX_site4381],8.98
6,TATCTATAATATTATACACACATATATGCATAATAT [CACACA_site6175],9.48
7,TTCTTCACATACACTTCAAAATTTGATAAAACATTA [CACACA_negctrl_site472],9.08
8,TAATAAATAAGATTCACACATATTTAAATGTTATGC [CACACA_site5275],9.11
9,TTATTTGAATAATGTTTGCACTTAGAGTATTTTATA,9.1
10,ATATATCATAAATAAATGAAAATATTTTCTATGTGT [CACACA_negctrl_site689],9.28
11,GTATATAATTTTTTTTTTTTTTTCATTCTTTTCCTT [CACACA_negctrl_site1780],9.28
12,AAATATATGAAATATACACACTTCTTTGGTATTATT [CACACA_site4414],9.49
13,ATGAATTGACCATATTGTACATATTTAGGACTTACC [XGTACX_site8072],9.18
14,TATATATTTTTTTCAAGTACACATTACAGTTACATA [XGTACX_site2713],9.22
15,ATGTTTTCTCTTTCGGTGCATTGTTTTCTATACTTT [GTGCAC_site9483],9.93
16,ATTCGATGTTTTAAATGTACACAAATTGAAGGAATA [XGTACX_site409],9.02
17,TTATATTTTATATTTACACACATTTATATTTATAAA [CACACA_site203],9.39
18,TTTATAATTTTAAAATGTACAAGGAGGAAAAATTCT [XGTACX_site422],9.09
19,TATATAAATATTCGTAGTACAATACAATTATAAGTA [XGTACX_site3068],9.15
20,AATTTGTAAAATAAGGTGCGTATAAAAAATTATATT [GTGCAC_site9676],9.36
